According to PMC5800995 (Biochemical pharmacology, 2018):

Molecular target: wild-type human dopamine D2 receptor (D2LR) (Homo sapiens, UniProt P14416)
Experiment: [^3H]spiperone binding, WT membranes

UniProt P14416, sequence (P14416 whole entry): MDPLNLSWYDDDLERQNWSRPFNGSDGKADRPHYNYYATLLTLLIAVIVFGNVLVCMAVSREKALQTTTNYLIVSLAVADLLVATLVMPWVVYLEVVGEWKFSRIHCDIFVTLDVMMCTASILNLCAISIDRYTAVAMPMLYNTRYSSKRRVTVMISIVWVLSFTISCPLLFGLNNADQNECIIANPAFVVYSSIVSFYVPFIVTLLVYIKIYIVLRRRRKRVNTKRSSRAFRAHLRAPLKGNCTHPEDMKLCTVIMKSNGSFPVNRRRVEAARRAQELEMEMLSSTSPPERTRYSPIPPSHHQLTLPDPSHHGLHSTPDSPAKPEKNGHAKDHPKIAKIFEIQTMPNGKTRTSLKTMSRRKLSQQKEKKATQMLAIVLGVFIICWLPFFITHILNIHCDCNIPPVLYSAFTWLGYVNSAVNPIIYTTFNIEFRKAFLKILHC

## CC(=O)N[C@H]1CC[C@H](CCN2CCc3ccc(C#N)cc3C2)CC1 [MIPS1059, N-((trans)-4-(2-(7-cyano-3,4-dihydroisoquinolin-2(1H)yl)ethyl)cyclohexyl)acetamide]
pKB Binding ([^3H]spiperone)
  Kb: 275 nM

## CCCN1CCc2ccc(C#N)cc2C1 [MIPS1071, 2-propyl-1,2,3,4-tetrahydroisoquinoline-7-carbonitrile]
KB Binding ([^3H]spiperone)
  Kb: 1260 nM

## N#Cc1ccc2c(c1)CN(CC[C@H]1CC[C@H](NC(=O)c3cc4cccc(F)c4[nH]3)CC1)CC2 [MIPS1868, N-((trans)-4-(2-(7-Cyano-3,4-dihydroisoquinolin-2(1H)-yl)ethyl)cyclohexyl)-7-fluoro-1H-indole-2-carboxamide]
pKB Binding ([^3H]spiperone)
  Kb: 162 nM
